# Assay results: the supplement of paper PMC3334620
# Whole data set: some 33,000 sequences, median “E-score (-0.5 to 0.5)” near -0.035, cut for the highest 2% near 0.34. Some of the results follow.
# Molecular target: T1, Mot3 (UniProt P54785)
# T1 sequence: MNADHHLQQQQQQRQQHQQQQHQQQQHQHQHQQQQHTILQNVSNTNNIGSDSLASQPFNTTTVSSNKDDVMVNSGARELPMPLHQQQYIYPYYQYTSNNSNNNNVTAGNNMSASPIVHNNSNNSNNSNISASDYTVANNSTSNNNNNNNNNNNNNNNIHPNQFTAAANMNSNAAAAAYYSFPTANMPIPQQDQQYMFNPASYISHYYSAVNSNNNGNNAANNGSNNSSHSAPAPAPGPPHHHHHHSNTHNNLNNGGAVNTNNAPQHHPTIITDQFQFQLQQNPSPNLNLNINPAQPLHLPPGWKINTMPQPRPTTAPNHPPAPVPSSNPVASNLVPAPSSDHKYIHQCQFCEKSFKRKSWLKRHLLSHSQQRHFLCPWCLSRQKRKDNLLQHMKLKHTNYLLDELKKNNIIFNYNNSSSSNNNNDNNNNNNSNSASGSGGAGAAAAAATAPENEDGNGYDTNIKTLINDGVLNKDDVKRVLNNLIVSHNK
# Test: PBM E-score (8-mer binding enrichment) (E-score (-0.5 to 0.5)); higher = stronger / more preferred TF binding; most listed sequences are background and not binding sites
# Conditions: protein concentration: 200 nM; construct: GST-full length
# Procedure, shortened: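 Masliner-normalised scans of fluorescent anti-GST signal were the basis for scoring. That signal came from GST-tagged yeast transcription factors applied at about 100-200 nM to double-stranded universal all-10-mer Agilent arrays on fresh or once-stripped slides. Each ungapped eight-base word, pooled with its reverse complement, received an E-score from the Universal PBM Analysis Suite.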
row,Sequence,PBM E-score
1,ACGTGTTC,0.221
2,CATCAGCG,-0.0175
3,CAAAAAAA,0.154
4,AATTTCAG,0.0442
5,AATAACCG,-0.0969
6,ATTTACAA,0.363
7,TCCGTCAA,-0.051
8,ATAACTTG,0.168
9,AAAACTTA,0.144
10,AGCCAAGG,-0.106
11,CCTTGCCC,0.119
12,CAGGAACA,0.449
13,CTAGACAA,0.101
14,CTAGTCGC,-0.071
15,AGGGGGGC,-0.307
16,GACGTGAA,0.0472
17,AACTAGCC,-0.112
18,GAAGCGGC,-0.369
19,ACAGCAAG,-0.0169
20,ACGGCCCC,-0.406
21,AATCCTTC,-0.105
22,CACACCAC,-0.0852
23,TACGTTCA,0.103
24,CAACGTGA,-0.065
25,ATGATGCG,-0.0292

row,Sequence,PBM E-score
1,CCCGAGTC,-0.234
2,CCGCGCCG,-0.15
3,ATTGATCG,0.0333
4,ATGGCAGA,-0.0408
5,AAACTGCG,-0.13
6,ATGCGCGG,-0.232
7,GTTTGTTA,0.222
8,TGTTGTAA,0.307
9,AGACTAGA,-0.245
10,TACATATA,0.317
11,TCACAGGA,0.15
12,CCATCTTC,-0.218
13,GCGGAACC,-0.106
14,ACGCTACA,0.0843
15,GGTCCGAA,0.0123
16,ACACCAAC,-0.0101
17,CGCCCGAC,-0.159
18,AAATGGTT,0.0419
19,AATATAAC,0.119
20,ATGGGCCA,0.00822
21,CAGTCCAA,-0.132
22,ACACGAGA,0.263
23,ATGAAGTC,-0.161
24,TAAGCATA,0.0176
25,AATCCACG,-0.1

row,Sequence,PBM E-score
1,GTAGGATA,0.185
2,ACGAGAAG,0.0683
3,CTAGTACC,0.057
4,TCACCGAA,-0.0409
5,AATTAGCA,0.11
6,CTACTCGA,0.0146
7,AAAAAAGA,0.0433
8,ACGTGATA,0.201
9,TACTACAA,0.208
10,AAGTGTTA,0.208
11,ACCGAAAG,0.0688
12,AGACAGCA,-0.129
13,CATACTCG,-0.0935
14,AATAAACC,-0.0482
15,TCGCCAGA,-0.257
16,ATTAACGC,0.306
17,ACATAAAC,0.16
18,AGCGGACA,-0.23
19,GAGCGTCA,-0.142
20,CGGTATGA,0.0158
21,GAGCGAAC,-0.154
22,AGCCGAGC,-0.106
23,CATGCGTC,-0.0423
24,ATATCTCG,-0.176
25,GTGTGCTA,0.0828

row,Sequence,PBM E-score
1,ATAACACC,0.178
2,AAGAGTCA,0.0483
3,AATGAAAG,0.114
4,AGCGAGTG,-0.0613
5,TCAATACA,0.229
6,AGAGCACC,-0.233
7,ATTAACTC,0.0273
8,GCCGTGAA,-0.128
9,TGGCGCAA,-0.185
10,AGTCGACG,0.0704
11,AGGGTAGC,-0.192
12,AGATTAAG,-0.0517
13,GGGTGAAA,-0.0283
14,GGTGTCTA,0.117
15,ATCCTCGC,-0.265
16,CGCGCGCA,-0.0351
17,GCACGTCC,-0.0142
18,CACCCCGA,-0.202
19,TGTTCTAA,0.217
20,AACGGGAC,-0.145
21,GTTGACCA,-0.0835
22,AAGTTACT,0.0279
23,CCTAGAGG,0.0418
24,CGTACGGA,-0.119
25,ACTATACC,-0.124

row,Sequence,PBM E-score
1,ATAAGCAG,0.0596
2,ACCCGGGC,-0.0284
3,ATTGCGAA,-0.0223
4,AGTCGGTA,-0.214
5,AACCCAGG,-0.0292
6,GGTGGTAA,0.0789
7,ACTCTACC,-0.0524
8,TGGAAGAA,0.00562
9,ATCATGCC,-0.0878
10,AGGAGAGA,-0.128
11,GAGACTCC,-0.307
12,CGCTGTCC,-0.0445
13,CAAAAGTG,-0.00942
14,CGAAAGTC,-0.0261
15,AAAGAGTG,0.011
16,CACTGCGC,-0.0918
17,AGTAAAAG,0.0823
18,GTCCACTA,0.132
19,GTCAAGTA,0.131
20,AACGAGTC,-0.139
21,AGCATTGG,-0.0872
22,AGCCTCGC,-0.216
23,CATAACCA,-0.0284
24,ATTAGTGA,-0.0459
25,GTGAGTCA,-0.0203

row,Sequence,PBM E-score
1,GTAAGAAA,0.0284
2,CATCCACC,-0.159
3,CCAGACCG,-0.216
4,AAAGTACT,0.085
5,CCCACAGC,0.00286
6,AGCCCGGC,-0.296
7,ACCATGTG,0.0765
8,TCCCATCA,-0.0825
9,AAAGCGTC,-0.137
10,ATAATTAG,0.087
11,TATGGTAA,-0.0433
12,GGCATGTA,0.376
13,GCGTGGAA,-0.104
14,GTACAAAC,0.177
15,GTTTTTAA,0.197
16,ACCGTCGG,-0.131
17,ATCGCCGG,-0.166
18,ACCCCTCG,-0.288
19,GCTCCACC,-0.268
20,AGCTCAAC,-0.0373
21,AGTGACTG,0.00473
22,AACCCATA,-0.0273
23,GCTCTACC,-0.187
24,AAAAAGAA,0.179
25,AGTATCCC,-0.156

row,Sequence,PBM E-score
1,AACATTGT,0.257
2,TCTCTGAA,0.0118
3,AATGAAAT,0.0278
4,AACTCGGT,0.0176
5,AATTACGG,-0.136
6,ATAGAATC,-0.0974
7,ACATGATG,0.241
8,ATGATGGC,-0.171
9,AGCTACAA,-0.0573
10,ACGAGAGA,-0.068
11,GATGCTAC,-0.122
12,CCCGTGCC,0.211
13,AAAATAGA,0.0123
14,ATTCAGTC,-0.14
15,AAATCACA,0.0993
16,AGCGGCCA,-0.332
17,CGATCCCC,-0.168
18,AGTGCTGC,-0.277
19,CAGTTATC,-0.223
20,AAACTCTA,0.0123
21,CAGGTTAA,0.18
22,CTATGAGA,-0.143
